Values marked as one replicate rest on one cluster of the flow cell; about a third of the high ones do not repeat.
What follows are sequences tested on ATP (assay: switch fluorescence ratio, 500 uM ATP over buffer (Cy3 cluster intensity, sum of 5 cycles each) (fold (ratio)); higher = stronger signal-on switching upon ATP binding; sequences stand for … in TCGTCGGCAGCGTCAGATGTGTATAAGAGACAGTTTTTTTTTTTTTTTTTTTTTTTTT…TC). Conditions: aptamer strand: ATP DNA aptamer (quencher-CACCTGGGGGAGTATTGCGGAGGAAGG + anchor), 100 nM annealed; ATP concentration: 500 uM; one replicate.
In short: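 The fluorescence ratio divides summed target-cycle Cy3 intensity by summed buffer-cycle Cy3 intensity for each cluster and is averaged per switch-domain sequence. Cy3-labelled switching-strand clusters on a modified Illumina MiSeq flow-cell were annealed to 100 nM quencher-labelled ATP aptamer, then imaged in selection buffer and again after 15 min with 500 uM ATP at 22 °C. Five such cycles were run, with NaOH stripping and re-annealing between them, and clusters outside 100-1000 RFU were excluded.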
For TCCTCAGTGG, the switch fluorescence ratio was 1.16.
TCCTCCATAG showed a switch fluorescence ratio of 3.26.
Work on TCCTCCATAT yielded a switch fluorescence ratio of 3.11.
For TCCTCCTGAC, the switch fluorescence ratio was 1.91.
In the case of TCCTCGAGAG, the switch fluorescence ratio is reported as 1.12.
In the case of TCCTCGCAGG, the switch fluorescence ratio is reported as 1.03.
Work on TCCTCGGGA yielded a switch fluorescence ratio of 2.15.
With TCCTCGTCGC the switch fluorescence ratio was 2.23.
TCCTGAAGCC gave a switch fluorescence ratio of 1.03.
With TCCTGAGCTC the switch fluorescence ratio was 1.48.
Sequence TCCTGAGTAC has a switch fluorescence ratio of 1.01.
Sequence TCCTGCCAC has a switch fluorescence ratio of 2.01.
Sequence TCCTGCGGAG has a switch fluorescence ratio of 1.12.
Work on TCCTGCTATC yielded a switch fluorescence ratio of 3.22.
In the case of TCCTGCTCGT, the switch fluorescence ratio is reported as 1.02.
Sequence TCCTGGGGCG has a switch fluorescence ratio of 0.99.
TCCTGGTGGG showed a switch fluorescence ratio of 1.02.
In the case of TCCTGGTTGA, the switch fluorescence ratio is reported as 1.03.
TCCTGTACAG showed a switch fluorescence ratio of 0.996.
TCCTGTGTCG gave a switch fluorescence ratio of 0.946.
In the case of TCCTGTTACG, the switch fluorescence ratio is reported as 1.01.
TCCTTATTCC showed a switch fluorescence ratio of 1.15.
With TCCTTTAGCG the switch fluorescence ratio was 1.21.
TCCTTTATGA showed a switch fluorescence ratio of 1.03.
TCCTTTATTT showed a switch fluorescence ratio of 0.982.
TCGAAAATCC gave a switch fluorescence ratio of 1.03.
Work on TCGAAAGGAC yielded a switch fluorescence ratio of 1.07.
TCGAAATTAC was tested, and the switch fluorescence ratio was 1.8.
Sequence TCGAACTAGA has a switch fluorescence ratio of 0.969.
For TCGAATAATC, the switch fluorescence ratio was 1.04.
With TCGAATTAGG the switch fluorescence ratio was 0.994.
Work on TCGAATTCAT yielded a switch fluorescence ratio of 0.986.
TCGACAAGCT gave a switch fluorescence ratio of 1.07.
TCGACAAGTG gave a switch fluorescence ratio of 1.23.
In the case of TCGACGGTGA, the switch fluorescence ratio is reported as 0.993.
Work on TCGAGAAGAG yielded a switch fluorescence ratio of 1.
In the case of TCGAGATACA, the switch fluorescence ratio is reported as 0.991.
In the case of TCGAGCCCGG, the switch fluorescence ratio is reported as 1.31.
For TCGAGCTGGT, the switch fluorescence ratio was 0.983.
TCGAGGACT gave a switch fluorescence ratio of 1.06.
In the case of TCGAGGGGG, the switch fluorescence ratio is reported as 1.05.
For TCGAGTTGGG, the switch fluorescence ratio was 0.952.
In the case of TCGATAACAC, the switch fluorescence ratio is reported as 1.02.
TCGATACTTG was tested, and the switch fluorescence ratio was 1.02.
In the case of TCGATGGCTG, the switch fluorescence ratio is reported as 0.997.
TCGATGTTGC gave a switch fluorescence ratio of 1.04.
TCGATTAAAG showed a switch fluorescence ratio of 1.02.
For TCGATTACGT, the switch fluorescence ratio was 1.02.
TCGATTCATA showed a switch fluorescence ratio of 1.
TCGATTTGTT showed a switch fluorescence ratio of 1.03.
TCGCAGGAGG was tested, and the switch fluorescence ratio was 0.963.
With TCGCAGTATT the switch fluorescence ratio was 1.41.
For TCGCAGTCTT, the switch fluorescence ratio was 1.03.
TCGCATGGTT gave a switch fluorescence ratio of 1.07.
Sequence TCGCCAAGAT has a switch fluorescence ratio of 1.16.
Sequence TCGCCATTTA has a switch fluorescence ratio of 0.986.
TCGCCCATTG gave a switch fluorescence ratio of 1.05.
For TCGCCCCGTG, the switch fluorescence ratio was 1.11.
TCGCCCTGGA was tested, and the switch fluorescence ratio was 1.02.
In the case of TCGCCGAGAA, the switch fluorescence ratio is reported as 1.07.
Work on TCGCCGCGA yielded a switch fluorescence ratio of 1.06.
Sequence TCGCCGGGAA has a switch fluorescence ratio of 1.03.
For TCGCCTAGAA, the switch fluorescence ratio was 1.02.
Work on TCGCCTCGAT yielded a switch fluorescence ratio of 1.02.
TCGCCTTGGC showed a switch fluorescence ratio of 0.955.
TCGCGAAACT gave a switch fluorescence ratio of 1.03.
TCGCGGATTC showed a switch fluorescence ratio of 1.11.
For TCGCGGCAGA, the switch fluorescence ratio was 1.01.
TCGCGGCGGG showed a switch fluorescence ratio of 1.02.
TCGCGGGACT gave a switch fluorescence ratio of 2.28.
For TCGCGGGCCG, the switch fluorescence ratio was 0.972.
For TCGCTCAACA, the switch fluorescence ratio was 0.982.
TCGCTCCTCA was tested, and the switch fluorescence ratio was 1.1.
Work on TCGCTCGAAT yielded a switch fluorescence ratio of 1.01.
TCGCTGCGAT showed a switch fluorescence ratio of 1.08.
Sequence TCGCTGTCTA has a switch fluorescence ratio of 0.998.
With TCGGAATCGA the switch fluorescence ratio was 1.03.
TCGGACCAAT gave a switch fluorescence ratio of 1.89.
In the case of TCGGACTGTG, the switch fluorescence ratio is reported as 0.983.
TCGGACTTGT showed a switch fluorescence ratio of 1.02.
TCGGAGGGCA was tested, and the switch fluorescence ratio was 0.997.
With TCGGAGTGAA the switch fluorescence ratio was 1.01.
TCGGATTGCA showed a switch fluorescence ratio of 1.04.
In the case of TCGGCAACCG, the switch fluorescence ratio is reported as 1.
TCGGCATTTC showed a switch fluorescence ratio of 1.62.

From the supplement of paper PMC10126150
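Note: ATP exposure 15 min at 22 °C before imaging.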
